Patent publication US20230348881

B1: wild-type recombinant PPE proprotein (pro-rPPE) with a C-terminal his-tag (protein)
chain: TQDFPETNARVVGGTEAQRNSWPSQISLQYRSGSSWAHTCGGTLIRQNWVMTAAHCVDRELTFRVVVGEHNLNQNDGTEQYVGVQKIVVHPYWNTDDVAAGYDIALLRLAQSVTLNSYVQLGVLPRAGTILANNSPCYITGWGLTRTNGQLAQTLQQAYLPTVDYAICSSSSYWGSTVKNSMVCAGGDGVRSGCQGDSGGPLHCLVNGQYAVHGVTSFVSRLGCNVTRKPTVFTRVSAYISWINNVIASN
B2: active PPE protein (rPPE), made from pro-rPPE by trypsin activation (protein)
chain: VVGGTEAQRNSWPSQISLQYRSGSSWAHTCGGTLIRQNWVMTAAHCVDRELTFRVVVGEHNLNQNDGTEQYVGVQKIVVHPYWNTDDVAAGYDIALLRLAQSVTLNSYVQLGVLPRAGTILANNSPCYITGWGLTRTNGQLAQTLQQAYLPTVDYAICSSSSYWGSTVKNSMVCAGGDGVRSGCQGDSGGPLHCLVNGQYAVHGVTSFVSRLGCNVTRKPTVFTRVSAYISWINNVIASN

Target: alpha-1 antitrypsin (A1AT), P01009
Sequence (P01009 whole entry, looked up): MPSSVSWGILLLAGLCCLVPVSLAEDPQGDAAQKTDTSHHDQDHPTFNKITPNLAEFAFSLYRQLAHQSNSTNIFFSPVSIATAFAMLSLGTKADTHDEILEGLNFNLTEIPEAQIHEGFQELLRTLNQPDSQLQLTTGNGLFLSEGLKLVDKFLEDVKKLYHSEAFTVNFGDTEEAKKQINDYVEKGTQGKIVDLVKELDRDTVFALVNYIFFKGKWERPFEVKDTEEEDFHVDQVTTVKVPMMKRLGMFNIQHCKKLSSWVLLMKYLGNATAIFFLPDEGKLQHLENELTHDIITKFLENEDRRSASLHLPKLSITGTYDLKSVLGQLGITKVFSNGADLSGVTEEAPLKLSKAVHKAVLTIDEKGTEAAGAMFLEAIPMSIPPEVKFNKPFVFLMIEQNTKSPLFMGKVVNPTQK

Protein	protease activity (colorimetric activity assay) after A1AT incubation, Ni-Sepharose purification and trypsin activation	protease activity (colorimetric activity assay) after A1AT incubation and Ni-Sepharose purification
B1	full recovery of protease activity for pro-rPPE following isolation from the A1AT solution	–
B2	–	the protease activity of activated rPPE was attenuated by A1AT when subjected to an identical procedure
